The source of these data is PMC4336329 (PLoS ONE, 2015).

In all, about 310,000 compounds went through this assay and about 14,000 (4.5%) showed an effect of 50% or more. Effects have a minus sign here. The list shows a part of the results.
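Note: peak tail current of the secondary pulse compared with the same well before compound.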

Sequence of human ether-à-go-go-related gene (hERG) potassium channel (Q12809 whole entry, looked up): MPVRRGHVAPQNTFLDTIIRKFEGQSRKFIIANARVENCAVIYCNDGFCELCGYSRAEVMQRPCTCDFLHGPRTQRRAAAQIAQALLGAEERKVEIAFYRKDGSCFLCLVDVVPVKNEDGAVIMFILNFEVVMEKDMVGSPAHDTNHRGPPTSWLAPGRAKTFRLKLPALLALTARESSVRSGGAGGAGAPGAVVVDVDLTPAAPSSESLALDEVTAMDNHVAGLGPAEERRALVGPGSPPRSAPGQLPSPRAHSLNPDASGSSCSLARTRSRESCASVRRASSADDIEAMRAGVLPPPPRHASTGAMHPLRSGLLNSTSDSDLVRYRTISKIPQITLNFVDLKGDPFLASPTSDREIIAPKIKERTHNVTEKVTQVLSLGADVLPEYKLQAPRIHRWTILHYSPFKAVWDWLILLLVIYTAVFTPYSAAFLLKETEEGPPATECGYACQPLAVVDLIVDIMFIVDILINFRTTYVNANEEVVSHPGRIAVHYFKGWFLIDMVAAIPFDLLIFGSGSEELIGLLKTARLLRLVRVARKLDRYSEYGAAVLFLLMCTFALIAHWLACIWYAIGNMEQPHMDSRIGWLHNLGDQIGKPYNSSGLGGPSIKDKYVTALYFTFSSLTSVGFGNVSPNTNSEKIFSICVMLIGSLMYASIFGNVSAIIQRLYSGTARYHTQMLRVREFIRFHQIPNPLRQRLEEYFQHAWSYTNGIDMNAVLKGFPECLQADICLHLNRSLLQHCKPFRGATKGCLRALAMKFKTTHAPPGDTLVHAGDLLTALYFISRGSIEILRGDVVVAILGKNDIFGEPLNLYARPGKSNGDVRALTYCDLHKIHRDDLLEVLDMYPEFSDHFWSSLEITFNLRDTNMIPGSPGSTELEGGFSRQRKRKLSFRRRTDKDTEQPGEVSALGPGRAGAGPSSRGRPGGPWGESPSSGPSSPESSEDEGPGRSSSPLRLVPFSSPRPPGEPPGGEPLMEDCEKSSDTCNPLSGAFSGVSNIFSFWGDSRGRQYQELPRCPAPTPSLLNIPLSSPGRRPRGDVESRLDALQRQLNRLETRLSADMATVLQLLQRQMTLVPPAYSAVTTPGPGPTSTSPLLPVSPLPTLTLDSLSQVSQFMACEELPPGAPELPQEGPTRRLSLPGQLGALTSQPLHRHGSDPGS

This assay concerns the target human ether-à-go-go-related gene (hERG) potassium channel (human, UniProt Q12809). As to the kind of experiment: primary screen, population patch clamp on CHO cells stably expressing hERG.
Regarding `Cc1oc(-c2ccc(Cl)cc2)nc1CS(=O)CC(=O)NCc1ccco1` (stereo not drawn), the “hERG current change (%, negative = inhibition) at 10uM” value was -35.6%.

Turning to `O=C(Cn1cc(C(=S)N2CCOCC2)c2ccccc21)N1CCOCC1`, the “hERG current change (%, negative = inhibition) at 10uM” value came to 17.8%.

On to `COc1ccc(/C=N/NC(=O)c2ccc(C)nc2)cc1O`, for which the “hERG current change (%, negative = inhibition) at 10uM” value was determined as 11.8%.

In the case of `COCCN1C(=O)C(=O)/C(=C(/O)c2cccc(S(=O)(=O)N(C)C)c2)C12C(=O)N(C)c1ccccc12` (stereo not drawn), the “hERG current change (%, negative = inhibition) at 10uM” value was determined as 3.81%.

In the case of `CCOc1ccc(NC(=O)C(=S)NC2CCCCC2)cc1`, the “hERG current change (%, negative = inhibition) at 10uM” value is -5.86%.

As for `CC1(C)C(=O)Nc2ccccc2N1C(=O)CSc1nnc2ccccn12`, the “hERG current change (%, negative = inhibition) at 10uM” value is listed as 12.7%.

As to `C=CCn1c(SCC(=O)NC2CCS(=O)(=O)C2)nnc1-c1cc2c(s1)CCC(CC)C2` (stereo not drawn), the “hERG current change (%, negative = inhibition) at 10uM” value is reported as -15.8%.

In the case of `O=C(NCc1ccccc1)C1CCC(CNc2c(N3CCCCC3)c(=O)c2=O)CC1` (stereo not drawn), the “hERG current change (%, negative = inhibition) at 10uM” value is 15.5%.

For `Cc1ccc2oc(C(=O)N3CCC(O)(c4ccccc4)CC3)c(C)c2c1`, the “hERG current change (%, negative = inhibition) at 10uM” value is given as -11.2%.

With `CC(C)CC(=O)OC1C(N2CCOCC2)c2c(ccc(/C=C/C(=O)N3CCOCC3)c2O)OC1(C)C` (stereo not drawn), the “hERG current change (%, negative = inhibition) at 10uM” value is given as -11.2%.

As to `CCc1cc2c(SCC(=O)c3ccc(C)cc3)ncnc2s1`, the “hERG current change (%, negative = inhibition) at 10uM” value is reported as 9.65%.

Regarding `Cc1nn(C)c(C)c1S(=O)(=O)N1CCCC(C(=O)N2CCN(c3ccccc3)CC2)C1` (stereo not drawn), the “hERG current change (%, negative = inhibition) at 10uM” value is listed as -27.6%.

With `CC1(C)CC(=O)c2cnc(NCC3CCCO3)nc2C1` (stereo not drawn), the “hERG current change (%, negative = inhibition) at 10uM” value turned out to be 7.24%.

As to `COc1cccc(OC)c1C(=O)Nc1ccc2c(c1)CCCN2S(=O)(=O)c1ccc(C)cc1`, the “hERG current change (%, negative = inhibition) at 10uM” value stood at 12.8%.

As for `CN(C)NC(=S)Nc1cccc(Cl)c1`, the “hERG current change (%, negative = inhibition) at 10uM” value is 14.3%.

With `COc1ccc(NS(=O)(=O)c2ccc(Br)s2)cc1OC`, the “hERG current change (%, negative = inhibition) at 10uM” value amounted to 2.93%.

Turning to `O=C(N/N=C/c1cn(-c2cccs2)nc1-c1ccccc1)c1ccc(O)cc1`, the “hERG current change (%, negative = inhibition) at 10uM” value is given as 13.8%.

As for `Cc1c(C(=O)NCCSCc2ccc(F)cc2)cnn1-c1ccc(Cl)cc1`, the “hERG current change (%, negative = inhibition) at 10uM” value is -34.6%.

With `COc1cccc(/C=C/C(=O)c2cccc([N+](=O)[O-])c2)c1OC`, the “hERG current change (%, negative = inhibition) at 10uM” value is recorded as -6.85%.

In the case of `CCOc1ccc(CNS(=O)(=O)c2ccc(-c3ccc(=O)[nH]n3)o2)cc1OC`, the “hERG current change (%, negative = inhibition) at 10uM” value stood at 18.5%.

Consider `COc1cc(/C=C/C(=O)NC(C)C)ccc1OCc1ccccc1`, for which the “hERG current change (%, negative = inhibition) at 10uM” value is given as 10.5%.

Take `O=c1[nH]cnc2scc(-c3cccs3)c12`: the “hERG current change (%, negative = inhibition) at 10uM” value turned out to be 9.55%.

As for `CCN(CC)S(=O)(=O)c1cccc(NC(=O)COC(=O)CCc2nc3ccccc3s2)c1`, the “hERG current change (%, negative = inhibition) at 10uM” value is 3.13%.

With `CCOC(=O)/C(C#N)=N/Nc1c(S(=O)(=O)Cc2ccco2)csc1C(=O)OC`, the “hERG current change (%, negative = inhibition) at 10uM” value is given as 11.4%.

On to `COc1ccc(Cl)cc1NC(=O)CSc1nncn1-c1cccnc1`, for which the “hERG current change (%, negative = inhibition) at 10uM” value is -20.7%.

In the case of `Cn1c(=O)[nH]c(=O)c2c1nc(SCC(=O)[O-])n2CCOc1ccccc1.[Na+]`, the “hERG current change (%, negative = inhibition) at 10uM” value is given as 20.3%.

For the compound `CC1=NC(C)(C)Cc2c(C)cccc21.Cl`, the “hERG current change (%, negative = inhibition) at 10uM” value is -3.65%.

For the compound `COc1ccc(CCNC(=O)COc2ccc(S(=O)(=O)NC(C)C)cc2Cl)cc1OC`, the “hERG current change (%, negative = inhibition) at 10uM” value is given as -0.335%.

On to `C=C(C)CSc1nnc([C@@H]2CCCN2)o1.Cl`, for which the “hERG current change (%, negative = inhibition) at 10uM” value is on record as 17.7%.

Regarding `COc1ccccc1NS(=O)(=O)c1ccc(C(=O)NCCCN2CCCC2=O)cc1`, the “hERG current change (%, negative = inhibition) at 10uM” value is on record as -0.345%.

For the compound `Cc1c(NC(=O)Cc2ccccc2)cccc1C(=O)NN1C(=O)c2ccccc2C1=O`, the “hERG current change (%, negative = inhibition) at 10uM” value was -10.2%.

In the case of `COc1ccc(-n2nc(C(=O)NCC(=O)NCC3CCCO3)c3ccccc3c2=O)cc1` (stereo not drawn), the “hERG current change (%, negative = inhibition) at 10uM” value is reported as 5.92%.

For the compound `CC1CCCN(C(=O)CCS(=O)(=O)Cc2ccccc2)C1` (stereo not drawn), the “hERG current change (%, negative = inhibition) at 10uM” value is 11.9%.

Regarding `CCn1c(CCCOc2ccc(Cl)cc2Cl)nnc1SCC(=O)Nc1cc(F)ccc1C`, the “hERG current change (%, negative = inhibition) at 10uM” value is on record as -13.1%.

On to `CC(=O)NCCC(=O)Nc1nc2c(ccc3ccccc32)s1`, for which the “hERG current change (%, negative = inhibition) at 10uM” value is given as 7.52%.

As to `O=C(OCC(=O)c1c[nH]c2ccccc12)c1cccc(S(=O)(=O)N2CCCCCC2)c1`, the “hERG current change (%, negative = inhibition) at 10uM” value is recorded as -4.9%.

`C[C@H](NC(=O)N1CCn2c1nc1ccccc12)C(=O)NC1CC1`: the “hERG current change (%, negative = inhibition) at 10uM” value amounted to 19.5%.

Take `COc1ccccc1NS(=O)(=O)c1ccc(O)c(NC(=S)NCC2CCCO2)c1` (stereo not drawn): the “hERG current change (%, negative = inhibition) at 10uM” value came to 7%.

In the case of `CCCC(c1nnnn1C1CCCC1)N1CCN(C(=O)c2ccco2)CC1.Cl` (stereo not drawn), the “hERG current change (%, negative = inhibition) at 10uM” value is on record as -32.9%.

On to `O=C(Nc1ccc(C(F)(F)F)cc1)C1CCN(S(=O)(=O)c2ccc(N3CCCC3=O)cc2)CC1`, for which the “hERG current change (%, negative = inhibition) at 10uM” value stood at 18%.

`CCOC(=O)C1CCN(C(=O)COC(=O)c2cc([N+](=O)[O-])ccc2N2CCOCC2)CC1`: the “hERG current change (%, negative = inhibition) at 10uM” value is given as -12.6%.

For the compound `O=C(O)CC(c1ccccc1)n1cccc1` (stereo not drawn), the “hERG current change (%, negative = inhibition) at 10uM” value is listed as 6.13%.
